Test results: the RNAGym collection of RNA variant scans (doi:10.1093/nar/gkz1192)
Read counts are not given, so values of variants with three or more changes are uncertain.

B1: CPEB3 Ribozyme (parent)
chain: UAACAGGGGGCCACAGCAGAAGCGUUCACGUCGCAGCCCCUGUCAGAUUCUGGUGAAUCUGCGAAUUCUGCUGUAUAUCUC

Variants of: B1
Assay: self-cleavage, relative activity (ratio to wild type); higher = more cleavage; in vitro, sequencing
How it was run: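 CPEB3 self-cleaving ribozyme mutant libraries were made by rounds of error-prone PCR, barcoded, and transcribed in vitro with T7 RNA polymerase for 5 hours at 37°C. Cleavage occurred during transcription and a 15 min DNase I step before EDTA stop. RNAs were reverse transcribed with template switching and Illumina-sequenced, with DNA sequencing mapping barcodes to variants. Relative activity is the variant's cleaved/total read fraction divided by wild type's (minimum 5 reads), averaged across three batches.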
In the case of UAACAGGGGGCCACAGCAGAAGCGUUCACGUCGCAGCCCCUGUCAGUUUCUGGUGAAUCUGCGGAUUCUGCUGUAUACCUC [A47U A64G U78C], the self-cleavage is reported as 0.3. UAACAGGGGGCCACAGCAGAAGCGUUCACGUCGCAGCCCCUGUCAGGUAUUGGUGAAUCUGCGCAUUCUGCUGUAUAUCCC [A47G U49A C50U A64C U80C] showed a self-cleavage of 0.14. UAACAGGGGGCCACAGCAGAAGCGUUCACGUCGCAGCCCCUGUCAGCUUCUGGUGGAUCUGCGAAUACUUCUGUAUAUCUC [A47C A56G U67A G70U] gave a self-cleavage of 0.05. For UAACAGGGGGCCACAGCAGAAGCGUUCACGUCGCAGCCCCUGUCAGGUACAGGUGAAUCUGUGAAUUCUGCUGUAUAUCUC [A47G U49A U51A C62U], the self-cleavage was 0.07. UAACAGGGGGCCACAGCAGAAGCGUUCACGUCGCAGCCCCUGUCAAACUCUGGUGAAUCUGCGAAUUCUGCGGUAUGUCUC [G46A U48C U72G A77G] gave a self-cleavage of 0.14. For UAACAGGGGGCCACAGCAGAAGCGUUCACGUCGCAGCCCCUGUCAGGUUCUGGUGAAUCUGCGAAUUCUGCUGCGUAUCUC [A47G U74C A75G], the self-cleavage was 1.27. UAACAGGGGGCCACAGCAGAAGCGUUCACGUCGCAGCCCCUGUCAGGUUCUGGUGAAUAUGCGAAUUCAGCUGUAUAUCUC [A47G C59A U69A] gave a self-cleavage of 0.38. Variant UAACAGGGGGCCACAGCAGAAGCGUUCACGUCGCAGCCCCUGUCAGGUUCUGGUGAAACCGCGAAUUCUGCUGUAUAUCUC [A47G U58A U60C] has a self-cleavage of 0.27. In the case of UAACAGGGGGCCACAGCAGAAGCGUUCACGUCGCAGCCCCUGUCAGUUUCUGAUGAAUCUGCGAGCUCUGCUGUAUAUCUC [A47U G53A A65G U66C], the self-cleavage is reported as 0.17. Work on UAACAGGGGGCCACAGCAGAAGCGUUCACGUCGCAGCCCCUGUCAGGUUCCGGUGAAUCUGCGAACUCUGCUGUAUAUCUC [A47G U51C U66C] yielded a self-cleavage of 0.34. UAACAGGGGGCCACAGCAGAAGCGUUCACGUCGCAGCCCCUGUCAGGUUCUGGAGAAUCUGCGAGUUCUGCUGUAUAUCUC [A47G U54A A65G] showed a self-cleavage of 0.16. UAACAGGGGGCCACAGCAGAAGCGUUCACGUCGCAGCCCCUGUCAGGUUCUGGUGUAUCUGCGAAUUCUGCUGCAUAUCUC [A47G A56U U74C] gave a self-cleavage of 0.52. For UAACAGGGGGCCACAGCAGAAGCGUUCACGUCGCAGCCCCUGUCAGGUUCCGGUGUAUCUGCGAAUUCUGCUGUAUAUCUC [A47G U51C A56U], the self-cleavage was 0.23. UAACAGGGGGCCACAGCAGAAGCGUUCACGUCGCAGCCCCUGUCAGGUUCGGGUGAAUCUGCGAAUUCUGCUGUAUAACUC [A47G U51G U78A] showed a self-cleavage of 0.35. UAACAGGGGGCCACAGCAGAAGCGUUCACGUCGCAGCCCCUGUCAGGUUCUGGAGAAUUUGCGAAUUCUGCUGUAUAUCUC [A47G U54A C59U] showed a self-cleavage of 0.99. Work on UAACAGGGGGCCACAGCAGAAGCGUUCACGUCGCAGCCCCUGUCAGGUUCUGGUGAACCUGCGAAUCCUGCUGUAUAUCUC [A47G U58C U67C] yielded a self-cleavage of 0.33. With UAACAGGGGGCCACAGCAGAAGCGUUCACGUCGCAGCCCCUGUCACAUUCUGGUGAAUCGGCGAAUUCUGCUGUACAUCUC [G46C U60G U76C] the self-cleavage was 0.23. For UAACAGGGGGCCACAGCAGAAGCGUUCACGUCGCAGCCCCUGUCAGGUUCUGGUGUAUCUGCGAAUUCUGCUGUACAUCUC [A47G A56U U76C], the self-cleavage was 0.55. UAACAGGGGGCCACAGCAGAAGCGUUCACGUCGCAGCCCCUGUCAGGCUCUGGUGAACCUGCGGAUUCUGCUGUAUAUCUC [A47G U48C U58C A64G] showed a self-cleavage of 0.49. With UAACAGGGGGCCACAGCAGAAGCGUUCACGUCGCAGCCCCUGUCAAAUUCUGGUGAAUCUGCGCAUUCUGCUGUAUACCUC [G46A A64C U78C] the self-cleavage was 0.14. UAACAGGGGGCCACAGCAGAAGCGUUCACGUCGCAGCCCCUGUCAGGUUCUGGUGAAUCCGCGAAUUCUGCUGUUUAUCUC [A47G U60C A75U] gave a self-cleavage of 0.35. UAACAGGGGGCCACAGCAGAAGCGUUCACGUCGCAGCCCCUGUCAGGUUCUGGUGAAUCUGCGACUUCUGCUGCAUAUAUC [A47G A65C U74C C79A] showed a self-cleavage of 0.12. For UAACAGGGGGCCACAGCAGAAGCGUUCACGUCGCAGCCCCUGUCAGUAUCUGGUGAAUCUGCGAAUUCUGCUGUAUAUCCC [A47U U48A U80C], the self-cleavage was 0.15. With UAACAGGGGGCCACAGCAGAAGCGUUCACGUCGCAGCCCCUGUCAGCCUCUGGUGAAUCUGCGAAUUCUGCUGCAUAUCUC [A47C U48C U74C] the self-cleavage was 0.42. UAACAGGGGGCCACAGCAGAAGCGUUCACGUCGCAGCCCCUGUCAGGUUCUGGUGAAUCUGUGAAUUCCGCUGUAUAUCUC [A47G C62U U69C] gave a self-cleavage of 0.3. For UAACAGGGGGCCACAGCAGAAGCGUUCACGUCGCAGCCCCUGUCAGGUUCCGGUGAAUCUGCGAAUUCUGCUGUACAUCUC [A47G U51C U76C], the self-cleavage was 1.17. For UAACAGGGGGCCACAGCAGAAGCGUUCACGUCGCAGCCCCUGUCAGGUUCUGGUGAAUCUGCGUAUUCUGCUGUAUAGCUC [A47G A64U U78G], the self-cleavage was 0.16. UAACAGGGGGCCACAGCAGAAGCGUUCACGUCGCAGCCCCUGUCAGGCUCUGGUGAAUCUGCGAAUCCUGCUGUAUAUCUC [A47G U48C U67C] showed a self-cleavage of 0.15. UAACAGGGGGCCACAGCAGAAGCGUUCACGUCGCAGCCCCUGUCAGGCUCUGGUGAAUCUGCGAAUUCUGCCGUAUAUCUC [A47G U48C U72C] gave a self-cleavage of 0.45. UAACAGGGGGCCACAGCAGAAGCGUUCACGUCGCAGCCCCUGUCAAAUUCUGGUGAAUCUGCGAAUUCUGCCGUAAAUCUC [G46A U72C U76A] gave a self-cleavage of 0.16. Variant UAACAGGGGGCCACAGCAGAAGCGUUCACGUCGCAGCCCCUGUCAGGUUCUGGUGGAUAUGCGAAUUCCGCUGUAUAUCUC [A47G A56G C59A U69C] has a self-cleavage of 0.27. Variant UAACAGGGGGCCACAGCAGAAGCGUUCACGUCGCAGCCCCUGUCAGGUUCUGGUAAAUCUGCGAAUUCUGCUGUAAAUCUC [A47G G55A U76A] has a self-cleavage of 1.08. For UAACAGGGGGCCACAGCAGAAGCGUUCACGUCGCAGCCCCUGUCAGGUUCAGGUGAAUCUGCGAAUUCUGCUGUAUAUCCC [A47G U51A U80C], the self-cleavage was 0.67. UAACAGGGGGCCACAGCAGAAGCGUUCACGUCGCAGCCCCUGUCAGGUUCUGGUGGGUCUGCGAAUUCUGCGGUAUAUCCC [A47G A56G A57G U72G U80C] showed a self-cleavage of 0.23.
